# Data from patent publication US12138293B2 (priority 2020, dated 2024).
# Residues, ends and D or L forms follow the SMILES beside them.
# Settings: 0.9% NaCl, all concentrations (100 μM to 10,000 μM)
# Procedure: The excipients shown below in Table 14 were used to prepare formulations containing aCT1 peptide at concentrations ranging from 100 μM to 10,000 μM, and the solubility and potential for effective delivery to the eye were tested. Specifically, formulations containing NaCl, polymer hydroxypropyl methylcellulose (HPMC), Pluronic® F-127 (PF-127), hydroxyethylcellulose (HEC), and carboxymethylcellulose (CMC) were compared.
smiles,measurement,value
"CC[C@H](C)[C@H](NC(=O)[C@H](CCC(=O)O)NC(=O)[C@H](CC(C)C)NC(=O)[C@H](CC(=O)O)NC(=O)[C@H](CC(=O)O)NC(=O)[C@@H]1CCCN1C(=O)[C@H](CCCNC(=N)N)NC(=O)[C@@H]1CCCN1C(=O)[C@H](CCCNC(=N)N)NC(=O)[C@H](CCCCN)NC(=O)[C@H](CCCCN)NC(=O)[C@H](Cc1c[nH]c2ccccc12)NC(=O)[C@@H]1CCCN1C(=O)[C@H](CCCCN)NC(=O)[C@H](CCCNC(=N)N)NC(=O)[C@H](CCCNC(=N)N)NC(=O)[C@H](CC(N)=O)NC(=O)[C@@H]1CCCN1C(=O)[C@H](Cc1ccccc1)NC(=O)[C@H](Cc1c[nH]c2ccccc12)NC(=O)[C@@H](NC(=O)[C@H](CCCCN)NC(=O)[C@@H]1CCCN1C(=O)[C@H](CCC(N)=O)NC(=O)[C@H](CCCNC(=N)N)NC(=O)CCCCCNC(=O)CCCC[C@@H]1SC[C@@H]2NC(=O)N[C@@H]21)[C@@H](C)CC)C(=O)O [aCT1, RQPKIWFPNRRKPWKK RPRPDDLEI] (HELM PEPTIDE1{[O=C1N[C@H]2[C@H](CS[C@H]2CCCCC(=O)[*:2])N1].[O=C(CCCCCN[*:1])[*:2]].R.Q.P.K.I.W.F.P.N.R.R.K.P.W.K.K.R.P.R.P.D.D.L.E.I}$$$$V2.0; N-terminus and C-terminus assumed)",Solubility in saline,soluble in saline at all concentrations
